Source: the RNAGym collection of RNA variant scans (doi:10.7554/elife.90254)
Read counts are not given, so values of variants with three or more changes are uncertain.

B1: LINE1-mini (parent)
chain: GGCAGAGCUCAACACAGCGUGGCAAAGUGGCUGUGGCUAGACUGCC

Variants of: B1
Assay: self-cleavage, relative activity (ratio to wild type); higher = more cleavage; in vitro, sequencing; the parent is a self-cleaving ribozyme

Row | Variant | self-cleavage
1 | A24C G36U A39C | 0.01
2 | A24G A25C A41U U43G | 0.04
3 | A24U U28A U38A | 0.18
4 | A25U G27A G44U | 0.14
5 | A26G C31G G36U | 0.02
6 | A25G C31A G36A | 0.14
7 | A25C U38A G40A | 0.04
8 | G27U C31U U32A C46G | 0.08
9 | G27U G40A A41G | 0.17
10 | U28C C31U U34G C46U | 0.07
11 | A25G A26C C46A | 0.71
12 | A25U U28A G30C | 1.59
13 | A25C A41G G44A C45A | 0.06
14 | G27A G30C C37G | 0.06
15 | G27U G40C A41U | 0.2
16 | G27C C31A C37U | 0.12
17 | A26G A39C C42A C45G | 0.04
18 | U28A G29U G35A | 0.29
19 | A24G G33C G35A G36U A41C | 0
20 | A25U C42U U43G | 0.3
21 | A25C U32G G44A | 0.04
22 | A24U G40C A41G | 0.02
23 | U28A G35U A39G | 0.09
24 | A26C U34A U38A | 0.21

Row | Variant | self-cleavage
25 | U28A C42A C45U | 0.01
26 | A26U U28G A41C | 0
27 | A24G A26U U34A | 0.03
28 | A25C G27U C31A G33U | 0.16
29 | A24G U28C G44C | 0.33
30 | A26G U28C G36U | 0.03
31 | A26U G27U C46A | 0.64
32 | A26G U28A U38C A41G | 0.04
33 | A25C U34A C42G | 0.16
34 | A26G C45A C46G | 0.18
35 | A24U A26C G29U | 1.63
36 | A24C G33U C46A | 0.02
37 | A24U A26U G36C | 0.02
38 | U28G G29U C42U | 0.29
39 | A25U A26U A39C G44C C45U | 0.05
40 | A24U A26G C42G C46U | 0.1
41 | A24U G36U G44A | 0.05
42 | G27U G29U C45A | 1.19
43 | U28G G29C A39C | 0.02
44 | A24U G40C G44U | 0.06
45 | A24C C31U G40C | 0.02
46 | G27A G36C A41C | 0.07
47 | A25U C31A G36A | 0.17
48 | A25C G30U G33A U34C | 0.05

Row | Variant | self-cleavage
49 | G27A A41U C42U | 0.04
50 | A24U A26U G30U | 0.52
51 | A25U G29U C45G | 0.35
52 | G27C C31G G36C C42U | 0.03
53 | A26U A39C A41G G44A | 0.05
54 | A26G G29U U38C | 0.11
55 | A24U C31A C46G | 0.09
56 | A25U A26G G35A | 0.19
57 | A24C U34G G44A | 0.05
58 | U28G C31A C42G | 0.01
59 | A25C A26U G33U U34A G36U C45A | 0.24
60 | G27A G29A A41C | 0.08
61 | U28C G30U C31A U43A C46U | 0.02
62 | A24U U38A U43G | 0.01
63 | U28C G30C C37A | 0.01
64 | A24U U28A G40C | 0.07
65 | A26G U32A U34A C46G | 0.08
66 | A24U A26U C46A | 1.11
67 | G27A U32A C42A | 0.12
68 | A24G A25U C46A | 1.54
69 | U28G G33C G35C | 0.03
70 | G27U U34G G35U G36U | 0.01
71 | U28C G33A G36A A41U | 0.24
72 | G27U C42G G44U | 0.02

Row | Variant | self-cleavage
73 | A26C C31U C46A | 0.04
74 | G27A U28C C37U | 0.04
75 | G27U G30A G40A C42G G44U | 0.06
76 | A24U A26U U38G | 0.01
77 | A25G G29A C37G | 0.02
78 | G27C U32A G33A G40C | 0.1
79 | A24U A25U G35A | 0.12
80 | G27U U28G G29C | 0.2
81 | G27U G35U C46G | 0.08
82 | A25U G29C U34C | 0.13
83 | A24U A25U G27C | 1.43
84 | A24U A25U G27A | 0.87
85 | G27C A41C G44U | 0.05
86 | U28A G33U C42G | 0.01
87 | A24U G36C C42A | 0.01
88 | G27C G30A U43C | 0.08
89 | A24U G29C C42U C46A | 0.02
90 | A25U G33C G35A U38C | 0.03
91 | G27A U28A C42A U43C | 0.09
92 | A25C C37U G44C | 0.04
93 | A24G U34G A39U | 0.1
94 | U28C U32G G36A A41U | 0.04
95 | A25G G27U G36A | 0.23
96 | G27A G30A G35U G40U G44C | 0.21

Row | Variant | self-cleavage
97 | A26U G36C C45U | 0.13
98 | G27U G44A C46U | 0.07
99 | A25C U38A C42A C46G | 0.03
100 | A25C U38C G44C C45G | 0.1
101 | G27C G29A U43A | 0.06
102 | G27U U32C C42G | 0
103 | U28A C31U A41G | 0.19
104 | U28A C37A G40C C42A C45U | 0.15
105 | A25C A26C G30C | 1.29
106 | U28A U38G C42U G44U | 0.01
107 | A26C G29A G40U C45A | 0.01
108 | A26G G27U C45U | 1.06
109 | A25G U32A C37G C46A | 0
110 | G27A G29A U34G G36U | 0.11
111 | G27A G40A G44U | 0.08
112 | U28G G33C G35A G44U | 0.01
113 | A25U G29C C31G | 0.07
114 | A25U A41U C42A | 0.05
115 | A25G G29C A41U | 0.02
116 | A24U U38G A41C C46G | 0.03
117 | A26U C37A C46U | 0.09
118 | U28C C31G A41U | 0.09
119 | U28G C31A C37A C45U | 0.03
120 | A25U G35U C42G C45G | 0.1

Row | Variant | self-cleavage
121 | U28A C31A U38C | 0.05
122 | A25G G27A G40C | 0.02
123 | G27A G29U G30C G35U | 0.08
124 | A24U U32C G33C | 0.03
125 | G27A G36A U38A G40U | 0.06
126 | G27A U34A G35C | 0
127 | A26C U28C U43G | 0
128 | U28A G36U G40C C42A C45A | 0.01
129 | A24U G27C U28C C31U G44U | 0.67
130 | A25U A26U C31G C42U | 0.02
131 | A26C G33C A39C | 0.04
132 | G27U G33C C42A | 0.06
133 | U28A A41U U43C | 0.08
134 | A25G A26U U28A C42A C46A | 0.03
135 | A24C U28A C37A G44C | 0
136 | U28A G30A U43C | 0.74
137 | A25G G35U G36C | 0.02
138 | A26U C37U C45U | 0.01
139 | A26U G27U G30U A41U | 0.1
140 | A25G G30U U34A C42G U43A | 0.01
141 | A24C A26U G30U | 0.16
142 | U28G G29U A39G | 0.04
143 | G27C U28C G30U C42A G44C | 0.04
144 | A24G G40U U43G | 0.37

Row | Variant | self-cleavage
145 | A24U U28C C46A | 1.52
146 | G27A G40U C42A | 0.1
147 | G27C G35U G36C | 0.07
148 | A24G A25G U38A C46A | 0.24
149 | A25C G36U A41C | 0.04
150 | U28G G30A U32C C45A | 0.04
151 | A26U G29U U34G G35U U43C | 0.07
152 | A26U G27C G29U | 0.22
153 | A24U C31U A39C U43C | 0.06
154 | A26C C31A A39G | 0.06
155 | A25G U32G G36U | 0.03
156 | G27C C42U C45U | 0.11
157 | G27A G35C G40A | 0.19
158 | A26G C31A C42U | 0.02
159 | G27C G40A A41G G44U | 0.04
160 | A24U U38G A41U G44A | 0.02
161 | A26C G27U U28C G30U A39U C46A | 0.1
162 | U28A U32C G36A A41U | 0.09
163 | U28A G33A G36U | 0
164 | A26C U32C G35A | 0.09
165 | A25C G44C C45A | 0.13
166 | U28G G36U G44A | 0.12
167 | U28C U43C G44A | 0.01
